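Protocol summary: plate cells (96-well), add compound at 5 concentrations, incubate 48 h, interpolate endpoints linearly. The concentration for full growth arrest is given as TGI.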 The source holds more than one record for some entries. They are shown here; other results are not. The source may hold further records. For some assays here: A record mostly stands for its own series of concentrations, not given here; a value can be the end of its range. For some assays here: Values given together repeat one measurement (runs, samples, wells, individuals or studies). A tag in brackets gives the origin of a value. Letters count within one entry.
Test system: MDA-MB-468 breast
Experiment: DTP human tumour cell line panel, 48 h

| SMILES | TGI |
| --- | --- |
| COc1cc(Nc2nc3ccccc3nc2NS(=O)(=O)c2ccc(NC(=O)c3ccc(C)c(OC)c3)cc2)cc(OC)c1 | 34.5 µM [sample A, 1 test] and 47.6 µM [sample B, 1 test] and 3.15 µM [sample C, mean of 2 tests] |
| CC(=O)O[C@H]1C(=O)[C@@]2(C)[C@H]([C@H](OC(=O)c3ccccc3)[C@]3(O)C[C@H](OC(=O)[C@H](O)[C@@H](NC(=O)c4ccccc4)c4ccccc4)C(C)=C1C3(C)C)[C@]1(OC(C)=O)CO[C@@H]1C[C@@H]2O | 49.5 nM [1 test] and 289 nM [mean of 2 tests] and 13.8 µM [mean of 3 tests] and 1.4 µM [mean of 5 tests] |

From PubChem BioAssay (NCI)
